Reference: patent US9433687B2, “Anti-Notch3 antibodies and antibody-drug conjugates” (Pfizer Inc., priority 2012, dated 2016)

Legend:
[1] = molecular target: T1, MDA-MB-468/hNotch3 (Homo sapiens, UniProt Q9UM47); assay: Cytotoxicity (MTS) after control or Notch3 siRNA, MDA-MB-468/hNotch3; assay type: cell-based; conditions: Control siRNA; 96 hours; LP = lacked potency
T1 construct: cell lines engineered to over-express full length human Notch3 protein: MDA-MB-468/hNotch3 and U2OS/hNotch3; expressed in transfected cells; host or cells: MDA-MB-468
Protocol: (§1) Notch3 knockdown with siRNAs was used to confirm that the in vitro cytotoxicity of anti-Notch3 ADCs was dependent on the expression of the Notch3 protein. siRNA transfections were generated using ON-TARGET plus SMART pool human Notch3 (L-011093-00), ON-TARGET plus Control Non-Targeting pool (D-001810-10) (Thermo Scientific Dharmacon) and Lipofectamine RNAiMAX Reagent (Invitrogen). Two to 2.5×10^6 cells of HCC2429, OVCAR3 and MDA-MB-468/hNotch3 cells were plated in 10 cm dishes in growth medium without antibiotics the day before transfection. The next day fresh medium without antibiotics was added. The siRNAs and the Lipofectamine RNAiMAX were diluted in OPTI-MEM media and used as per the manufacturer's specifications. Each of the cell lines was transfected with control and Notch3 siRNAs. The cells were incubated with the transfection mixture for 24 hours in a humidified, 37° C., 5% CO2 incubator. After 24 hours, cells were trypsinized and plated for assessment using MTS cellular viability indicator (Promega, Madison, Wis.).
Depending on the cell line, cells were then seeded at a density of 2,500 to 5,000 cells per well 24 hours before treatment. Cells were treated with 3-fold serially diluted humanized anti-Notch3 ADCs in triplicates at 10 concentrations (range 0-30 μg Ab/ml). […] For experiments with 2 individual repeats, average IC50 values were calculated along with standard error of the mean (S.E.M.). Western blot analysis on extracts prepared from control and Notch3 siRNA-treated cells was performed to confirm that Notch3 knockdown occurred for up to 144 hours (data not shown). Cell lines that expressed Notch3 (herein termed control siRNA) or had reduced Notch3 expression after siRNA knockdown (herein termed Notch3 siRNA) were cultured with increasing concentrations of humanized anti Notch3 ADCs. […] After four days, viability of each culture was assessed. IC50 values were calculated by logistic non-linear regression, model #203 with XL fit v4.2 (IDBS, Guildford, Surry, UK) and presented as ng Ab/mL. […]

[2] = tested on: HCC2429 lung xenografts; assay: HCC2429 lung xenograft model (ADCs); assay type: in vivo, mouse
Protocol: Similar in vivo experiments were performed with the HCC2429 lung cancer cell line as described above. To generate xenografts, nude (Nu/Nu) female mice were implanted subcutaneously with 3.5×10^6 HCC2429 cells in 50% Matrigel (BD Biosciences).
The HCC2429 lung model was also dosed intravenously Q4d×4 with PBS vehicle, rat-human chimeric anti-Notch3 ADCs and control huNeg-8.8 ADCs, at a dose of 5 mg/kg as provided in FIG. 16A.

[3] = molecular target: T2, OVCAR3 (Homo sapiens, UniProt Q9UM47); assay: Cytotoxicity (MTS) after control or Notch3 siRNA, OVCAR3; assay type: cell-based; conditions: 96 hours
T2 construct: Notch3 endogenously expressing cells MDA-MB-468, HCC2429 and OVCAR3; endogenous in cells; host or cells: OVCAR3
Protocol: as §1
Depending on the cell line, cells were then seeded at a density of 2,500 to 5,000 cells per well 24 hours before treatment. Cells were treated with 3-fold serially diluted humanized anti-Notch3 ADCs in triplicates at 10 concentrations (range 0-30 μg Ab/ml). […] For experiments with 2 individual repeats, average IC50 values were calculated along with standard error of the mean (S.E.M.). Western blot analysis on extracts prepared from control and Notch3 siRNA-treated cells was performed to confirm that Notch3 knockdown occurred for up to 144 hours (data not shown). Cell lines that expressed Notch3 (herein termed control siRNA) or had reduced Notch3 expression after siRNA knockdown (herein termed Notch3 siRNA) were cultured with increasing concentrations of humanized anti Notch3 ADCs. As a specificity control for the anti-Notch3 ADCs, non-targeted control-ADCs (huNeg8.8-ADCs) were also tested on the same cell lines. After four days, viability of each culture was assessed. IC50 values were calculated by logistic non-linear regression, model #203 with XL fit v4.2 (IDBS, Guildford, Surry, UK) and presented as ng Ab/mL. The drug antibody ratio (DAR) is also provided.

[4] = tested on: OVCAR3 (ovarian cancer); assay: In vitro cytotoxicity (MTS), OVCAR3; assay type: cell-based, human; conditions: Table 14; LP = lacked potency
Protocol: The effects of anti-Notch3 ADCs were assessed on 1) cell lines endogenously expressing Notch3 protein: HCC2429 (lung cancer), OVCAR3 (ovarian cancer) and MDA-MB-468 (breast cancer), 2) cell lines engineered to over-express full length human Notch3 protein: MDA-MB-468/hNotch3 and U2OS/hNotch3, and 3) a negative control cell line (SW900) using an MTS cellular viability indicator (Promega, Madison, Wis.). These cell lines were cultured with increasing concentrations of anti-Notch3 ADCs comprising rat-human chimeric anti-Notch3 antibodies, ch28 and ch75, and humanized anti-Notch3 antibodies, hu28 and hu75, conjugated to various linker-payload combinations of the present invention. As a specificity control for the anti-Notch3-ADCs, non-targeted control-ADCs (huNeg8.8-ADCs or ch2H6-ADCs) were also tested on the same cell lines. After four days, viability of each culture was assessed. IC50 values were calculated by logistic non-linear regression, model #203 with XL fit v4.2 (IDBS, Guildford, Surry, UK) and presented as ng Ab/mL. The drug antibody ratio (DAR) is also provided.
This process generated the anti-Notch3 cysteine mutant ADCs: hu28-(L443C)-vc0101 and hu28-(L443C/κK183C)-vc0101. The activity of the anti-Notch3 cysteine mutant ADCs were assessed on cell lines endogenously expressing Notch3 protein: HCC2429 (lung cancer) and OVCAR3 (ovarian cancer) using an MTS cellular viability indicator as described in previous Examples.

T2 sequence (Q9UM47 40-2321): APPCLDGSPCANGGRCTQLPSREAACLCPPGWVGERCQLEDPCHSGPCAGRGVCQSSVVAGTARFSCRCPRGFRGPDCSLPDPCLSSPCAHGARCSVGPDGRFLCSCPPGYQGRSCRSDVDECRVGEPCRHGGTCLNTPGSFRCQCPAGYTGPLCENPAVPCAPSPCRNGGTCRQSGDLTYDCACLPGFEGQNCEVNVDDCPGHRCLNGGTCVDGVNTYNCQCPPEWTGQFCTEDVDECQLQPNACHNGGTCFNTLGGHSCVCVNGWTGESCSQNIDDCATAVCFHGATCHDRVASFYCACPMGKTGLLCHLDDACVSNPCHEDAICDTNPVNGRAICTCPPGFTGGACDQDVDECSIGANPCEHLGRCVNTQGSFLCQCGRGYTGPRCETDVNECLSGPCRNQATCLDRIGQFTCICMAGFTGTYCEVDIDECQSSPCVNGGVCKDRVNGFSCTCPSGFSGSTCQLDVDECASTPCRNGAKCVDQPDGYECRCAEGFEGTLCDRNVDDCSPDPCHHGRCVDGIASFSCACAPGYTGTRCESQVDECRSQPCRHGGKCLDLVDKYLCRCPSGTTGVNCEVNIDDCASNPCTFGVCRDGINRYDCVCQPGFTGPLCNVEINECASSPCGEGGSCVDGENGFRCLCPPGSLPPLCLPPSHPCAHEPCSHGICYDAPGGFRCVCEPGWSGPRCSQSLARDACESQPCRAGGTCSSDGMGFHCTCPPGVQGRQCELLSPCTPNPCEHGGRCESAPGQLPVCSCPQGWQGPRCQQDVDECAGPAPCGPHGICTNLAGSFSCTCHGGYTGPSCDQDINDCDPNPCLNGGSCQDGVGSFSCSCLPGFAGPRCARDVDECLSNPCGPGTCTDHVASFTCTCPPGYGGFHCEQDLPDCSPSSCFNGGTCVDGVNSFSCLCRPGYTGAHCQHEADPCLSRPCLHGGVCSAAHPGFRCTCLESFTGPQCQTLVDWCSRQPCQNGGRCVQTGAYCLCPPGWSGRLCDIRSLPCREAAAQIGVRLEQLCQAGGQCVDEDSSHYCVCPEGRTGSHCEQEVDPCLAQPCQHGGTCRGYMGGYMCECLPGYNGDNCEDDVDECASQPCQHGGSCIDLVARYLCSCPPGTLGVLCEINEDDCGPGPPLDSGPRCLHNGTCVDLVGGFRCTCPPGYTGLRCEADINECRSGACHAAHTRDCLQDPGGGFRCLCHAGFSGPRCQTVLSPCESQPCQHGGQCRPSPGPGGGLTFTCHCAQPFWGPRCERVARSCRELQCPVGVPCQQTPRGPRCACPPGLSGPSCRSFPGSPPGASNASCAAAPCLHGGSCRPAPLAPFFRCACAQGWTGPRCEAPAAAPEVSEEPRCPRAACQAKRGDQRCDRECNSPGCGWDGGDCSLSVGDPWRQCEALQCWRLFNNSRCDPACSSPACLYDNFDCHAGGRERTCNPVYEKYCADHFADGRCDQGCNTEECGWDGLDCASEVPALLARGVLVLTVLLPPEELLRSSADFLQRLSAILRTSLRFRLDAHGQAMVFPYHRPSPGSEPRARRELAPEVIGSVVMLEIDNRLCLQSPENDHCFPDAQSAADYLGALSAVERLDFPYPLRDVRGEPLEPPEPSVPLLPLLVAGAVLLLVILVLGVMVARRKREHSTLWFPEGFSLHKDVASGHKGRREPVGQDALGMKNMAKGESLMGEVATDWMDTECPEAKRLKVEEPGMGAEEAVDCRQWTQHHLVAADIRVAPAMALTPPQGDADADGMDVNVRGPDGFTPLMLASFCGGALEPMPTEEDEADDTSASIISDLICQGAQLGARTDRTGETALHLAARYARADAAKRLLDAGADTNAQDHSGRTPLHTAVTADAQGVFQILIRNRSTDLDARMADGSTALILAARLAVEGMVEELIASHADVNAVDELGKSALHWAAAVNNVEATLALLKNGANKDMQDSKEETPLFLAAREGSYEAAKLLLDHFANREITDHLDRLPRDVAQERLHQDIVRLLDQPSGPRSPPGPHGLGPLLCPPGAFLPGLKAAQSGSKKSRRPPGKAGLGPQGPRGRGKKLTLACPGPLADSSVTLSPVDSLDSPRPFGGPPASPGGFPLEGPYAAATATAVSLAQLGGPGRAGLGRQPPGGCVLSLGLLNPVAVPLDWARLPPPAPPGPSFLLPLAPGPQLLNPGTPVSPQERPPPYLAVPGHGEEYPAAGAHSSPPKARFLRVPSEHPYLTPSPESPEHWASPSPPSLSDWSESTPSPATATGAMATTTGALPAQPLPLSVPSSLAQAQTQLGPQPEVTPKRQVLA
T1 sequence (Q9UM47 40-2321): as above

B1: hu28-vc6780 (conjugate)
heavy: EVQLVESGGGLVQPGGSLRLSCAASGFTFRDYGMTWVRQAPGKGLEWVAYISSGSNYIYYAEAVKGRFTISRDNAKNSLYLQMNSLRAEDTAVYYCARRGPFVLDAWGQGTLVTVSS[letters of human IgG1 constant region omitted]
light: DIQMTQSPSSLSASVGDRVTITCKASQSINRYLHWYQQKPGKAPKLLIYNANGLQTGVPSRFSGSGSGTDFTLTISSLQPEDFATYYCLQHNTWPDTFGGGTKVEIKRTVAAPSVFIFPPSDEQLKSGTASVVCLLNNFYPREAKVQWKVDNALQSGNSQESVTEQDSKDSTYSLSSTLTLSKADYEKHKVYACEVTHQGLSSPVTKSFNRGEC
[1]
  IC50 (ng Ab/mL) ± S.E.M., MDA-MB 468/hNotch3 Control siRNA: 2.0 ng Ab/mL
[2]; 1 mg/kg i.v. Q4d×4, DAY 1
  tumor volume (mm^3 ± SEM): 400 mm^3
[2]; 1 mg/kg i.v. Q4d×4, DAY 3
  tumor volume (mm^3 ± SEM): 579 mm^3
[2]; 1 mg/kg i.v. Q4d×4, DAY 5
  tumor volume (mm^3 ± SEM): 826 mm^3
[2]; 1 mg/kg i.v. Q4d×4, DAY 7
  tumor volume (mm^3 ± SEM): 1023 mm^3
[2]; 1 mg/kg i.v. Q4d×4, DAY 10
  tumor volume (mm^3 ± SEM): 1439 mm^3
[2]; 1 mg/kg i.v. Q4d×4, DAY 12
  tumor volume (mm^3 ± SEM): 1442 mm^3
[2]; 1 mg/kg i.v. Q4d×4, DAY −1
  tumor volume (mm^3 ± SEM): 245 mm^3
[2]; 3 mg/kg i.v. Q4d×4, DAY 1
  tumor volume (mm^3 ± SEM): 379 mm^3
[2]; 3 mg/kg i.v. Q4d×4, DAY 3
  tumor volume (mm^3 ± SEM): 493 mm^3
[2]; 3 mg/kg i.v. Q4d×4, DAY 5
  tumor volume (mm^3 ± SEM): 609 mm^3
[2]; 3 mg/kg i.v. Q4d×4, DAY 7
  tumor volume (mm^3 ± SEM): 638 mm^3
[2]; 3 mg/kg i.v. Q4d×4, DAY 10
  tumor volume (mm^3 ± SEM): 784 mm^3
[2]; 3 mg/kg i.v. Q4d×4, DAY 12
  tumor volume (mm^3 ± SEM): 883 mm^3
[2]; 3 mg/kg i.v. Q4d×4, DAY 14
  tumor volume (mm^3 ± SEM): 895 mm^3
[2]; 3 mg/kg i.v. Q4d×4, DAY 17
  tumor volume (mm^3 ± SEM): 1105 mm^3
[2]; 3 mg/kg i.v. Q4d×4, DAY 20
  tumor volume (mm^3 ± SEM): 1219 mm^3
[2]; 3 mg/kg i.v. Q4d×4, DAY 24
  tumor volume (mm^3 ± SEM): 1618 mm^3
[2]; 3 mg/kg i.v. Q4d×4, DAY −1
  tumor volume (mm^3 ± SEM): 245 mm^3
[2]; 10 mg/kg i.v. Q4d×4, DAY 1
  tumor volume (mm^3 ± SEM): 369 mm^3
[2]; 10 mg/kg i.v. Q4d×4, DAY 3
  tumor volume (mm^3 ± SEM): 318 mm^3
[2]; 10 mg/kg i.v. Q4d×4, DAY 5
  tumor volume (mm^3 ± SEM): 228 mm^3
[2]; 10 mg/kg i.v. Q4d×4, DAY 7
  tumor volume (mm^3 ± SEM): 172 mm^3
[2]; 10 mg/kg i.v. Q4d×4, DAY 10
  tumor volume (mm^3 ± SEM): 143 mm^3
[2]; 10 mg/kg i.v. Q4d×4, DAY 12
  tumor volume (mm^3 ± SEM): 134 mm^3
[2]; 10 mg/kg i.v. Q4d×4, DAY 14
  tumor volume (mm^3 ± SEM): 115 mm^3
[2]; 10 mg/kg i.v. Q4d×4, DAY 17
  tumor volume (mm^3 ± SEM): 127 mm^3
[2]; 10 mg/kg i.v. Q4d×4, DAY 20
  tumor volume (mm^3 ± SEM): 149 mm^3
[2]; 10 mg/kg i.v. Q4d×4, DAY 24
  tumor volume (mm^3 ± SEM): 206 mm^3
[2]; 10 mg/kg i.v. Q4d×4, DAY 27
  tumor volume (mm^3 ± SEM): 290 mm^3
[2]; 10 mg/kg i.v. Q4d×4, DAY 31
  tumor volume (mm^3 ± SEM): 378 mm^3
[2]; 10 mg/kg i.v. Q4d×4, DAY 34
  tumor volume (mm^3 ± SEM): 551 mm^3
[2]; 10 mg/kg i.v. Q4d×4, DAY 38
  tumor volume (mm^3 ± SEM): 718 mm^3
[2]; 10 mg/kg i.v. Q4d×4, DAY 42
  tumor volume (mm^3 ± SEM): 1011 mm^3
[2]; 10 mg/kg i.v. Q4d×4, DAY −1
  tumor volume (mm^3 ± SEM): 244 mm^3
[3]; Control siRNA
  IC50 (ng Ab/mL) ± S.E.M., OVCAR3 Control siRNA: 189 ± 6.0 ng Ab/mL
[3]; Notch3 siRNA knockdown
  IC50 (ng Ab/mL) ± S.E.M., OVCAR3 Notch3 siRNA: 6100 ± 200 ng Ab/mL
[4]
  IC50 (ng Ab/mL), OVCAR3: 17 ng Ab/mL
